The RNAGym collection of RNA variant scans (doi:10.7554/elife.90254)
Read counts are not given, so values of variants with three or more changes are uncertain.

B1: LINE1-mini (parent)
chain: GGCAGAGCUCAACACAGCGUGGCAAAGUGGCUGUGGCUAGACUGCC

Variants of: B1
Experiment: self-cleavage, relative activity (ratio to wild type); higher = more cleavage; in vitro, sequencing; the parent is a self-cleaving ribozyme
Work on G1U U38C G40U yielded a self-cleavage of 0.07.
For A12C A14C U20C, the self-cleavage was 0.01.
For A6C G30C U34C C46G, the self-cleavage was 0.11.
C18G U28G G35C C37U gave a self-cleavage of 0.02.
With C8A C15U C31U the self-cleavage was 0.32.
A6G C13U C15G G44A showed a self-cleavage of 0.01.
For G7U C8G U38G, the self-cleavage was 0.05.
In the case of G21U A26U C37G C42A U43G, the self-cleavage is reported as 0.04.
With G2A A6C C15A U32A C45A the self-cleavage was 0.03.
In the case of C10A C13A G30U, the self-cleavage is reported as 0.04.
In the case of C3G C15A A16U, the self-cleavage is reported as 0.2.
For A24G A25U A26G C45U, the self-cleavage was 2.74.
C10G A11C C13A G36A A39G gave a self-cleavage of 0.02.
For G5U C10A G33U G35U U38G, the self-cleavage was 0.04.
Variant C8A A12U A16U U20A G35A A41G C46G has a self-cleavage of 0.04.
Work on G2A G5C A6C A11C G36A G44C yielded a self-cleavage of 0.01.
In the case of G5C U9C G29A C31A C45A, the self-cleavage is reported as 0.01.
C3U G29U A41C gave a self-cleavage of 0.19.
In the case of G1U G21C G30A G35U C46G, the self-cleavage is reported as 0.04.
Work on G5U U9G C45G yielded a self-cleavage of 0.12.
Work on A12C C13U G21A G22U G33A A41U C42A yielded a self-cleavage of 0.02.
In the case of A6U G27C G35A U38C, the self-cleavage is reported as 0.04.
G17U G21A C23G showed a self-cleavage of 0.05.
With G21A C31A C45A the self-cleavage was 0.08.
For G5U C18U G19C G29U, the self-cleavage was 0.16.
G1U C3G G21U A26U A41U gave a self-cleavage of 0.13.
For G5C A16G G33C C37A, the self-cleavage was 0.02.
In the case of C3U C31A A39G A41G C42A C45A, the self-cleavage is reported as 0.04.
C18A G22A G29A U32A gave a self-cleavage of 0.05.
C13A G29U G33A showed a self-cleavage of 0.06.
Work on G1U C8U A11U A12U C31A A41G yielded a self-cleavage of 0.
C10A C18G G22A C46A showed a self-cleavage of 0.27.
With A16G G29U G40A the self-cleavage was 0.03.
Variant G1U A24U U28C G33C has a self-cleavage of 0.08.
G7A C23G G27U G29C showed a self-cleavage of 0.02.
Work on G2U C8A G30A G33A A39G yielded a self-cleavage of 0.13.
In the case of G17U G29U U34A, the self-cleavage is reported as 0.01.
Variant G27U G33U G36C C37U G40U has a self-cleavage of 0.12.
A6G G17C G36U showed a self-cleavage of 0.04.
In the case of C3A G19U G21A G27U, the self-cleavage is reported as 0.16.
In the case of U28G C31U G44C, the self-cleavage is reported as 0.06.
U9C G22U G30A showed a self-cleavage of 0.03.
Work on G5U G22A C42U yielded a self-cleavage of 0.12.
For C8A G17U C18A C37A G40A, the self-cleavage was 0.08.
In the case of G2A C3A A16C A25C G29U G36C C37G, the self-cleavage is reported as 0.37.
For A6U G19U G40A, the self-cleavage was 0.03.
G1U A14U A41G showed a self-cleavage of 0.04.
A6U U9A C46U showed a self-cleavage of 0.16.
In the case of A11G G29A U32G, the self-cleavage is reported as 0.03.
For A4U C13A G33U C45A, the self-cleavage was 0.09.
A14U G22A G29U showed a self-cleavage of 1.55.
Variant G17U C23A U34G C37U has a self-cleavage of 0.
G2U C13A A16G G21C G33U gave a self-cleavage of 0.
C13A A14U G21A G29A gave a self-cleavage of 0.12.
Variant A26C G29A G30U G40A has a self-cleavage of 0.09.
For G21U G22U G27U, the self-cleavage was 0.54.
For A6C C8U A11C G22C, the self-cleavage was 0.03.
With G5U C8A C10G G19U G27A the self-cleavage was 0.02.
For C3U A6C G29C, the self-cleavage was 0.19.
In the case of A4U U32A U43A, the self-cleavage is reported as 0.02.
For G33C C42A G44A, the self-cleavage was 0.04.
With C3G C8G G21U G35C the self-cleavage was 0.02.
Work on A14U G17A U28A yielded a self-cleavage of 0.03.
Work on A6G A24G G35U yielded a self-cleavage of 0.01.
Work on U28A U32A G33C C37U yielded a self-cleavage of 0.09.
Variant U9G G21C C23A has a self-cleavage of 0.04.
Work on A4U C15A G22A A26G yielded a self-cleavage of 0.03.
Work on C13A G21U A26G yielded a self-cleavage of 0.17.
G2C C3U A6G C10U G40U gave a self-cleavage of 0.03.
C8G C31U A39G C45A showed a self-cleavage of 0.04.
In the case of C13G C15A A16U G22U G35A A39G, the self-cleavage is reported as 0.33.
With G1U C10G G29U the self-cleavage was 0.03.
Variant A4C C10A C13U has a self-cleavage of 0.01.
Variant G7A A24U U38G has a self-cleavage of 0.06.
With G2U C10A U20C C42A the self-cleavage was 0.01.
Variant U9A G21C A26G has a self-cleavage of 0.04.
In the case of G1C G2A U34C, the self-cleavage is reported as 0.05.
Variant A11C A41U C42G has a self-cleavage of 0.
In the case of A4U A16G G19U U20C U43G, the self-cleavage is reported as 0.
For C10U A16G A25G A26C U28C G29A, the self-cleavage was 0.11.
In the case of C31A U34C A39C C45A, the self-cleavage is reported as 0.02.
Work on C3A C10A A16G G21C U28G yielded a self-cleavage of 0.01.
In the case of C10A G21U A25C A26G, the self-cleavage is reported as 0.07.
